Test results from the supplement of paper PMC8728848.
This is one part of the list.

Legend:
Experiment in all cases: glycan array binding signal (z-score within array); higher = stronger binding
Conditions in all cases: glycan notation: IUPAC condensed, linker removed
[1] = biological target: Gal(b1-4)GlcNAc(b1-2)[Gal(b1-4)GlcNAc(b1-4)]Man(a1-3)[Gal(b1-4)GlcNAc(b1-2)[Gal(b1-4)GlcNAc(b1-6)]Man(a1-6)]Man(b1-4)GlcNAc(b1-4)GlcNAc
Outline: (§1)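 Glycan array binding is given as a within-array Z-score, which can be read as non-binding when negative. The arrays, 3228 of them, came from the Consortium for Functional Glycomics database and were retained only where the protein sequence was available. Z-scores were averaged across arrays of the same protein sequence at different concentrations or buffers and across linkers.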

[2] = biological target: Gal(b1-4)GlcNAc(b1-2)[Gal(b1-4)GlcNAc(b1-4)]Man(a1-3)[GlcNAc(b1-4)][Gal(b1-4)GlcNAc(b1-2)Man(a1-6)]Man(b1-4)GlcNAc(b1-4)GlcNAc
Outline: as §1

[3] = biological target: Gal(b1-4)GlcNAc(b1-2)[Gal(b1-4)GlcNAc(b1-4)]Man(a1-3)[GlcNAc(b1-4)][Gal(b1-4)GlcNAc(b1-2)[Gal(b1-4)GlcNAc(b1-6)]Man(a1-6)]Man(b1-4)GlcNAc(b1-4)GlcNAc
Outline: as §1

[4] = biological target: Gal(b1-4)GlcNAc(b1-2)[Gal(b1-4)GlcNAc(b1-4)]Man(a1-3)[GlcNAc(b1-4)][Gal(b1-4)GlcNAc(b1-2)[Gal(b1-4)GlcNAc(b1-6)]Man(a1-6)]Man(b1-4)GlcNAc(b1-4)[Fuc(a1-6)]GlcNAc
Outline: as §1

[5] = biological target: Gal(b1-4)GlcNAc(b1-2)[Gal(b1-4)GlcNAc(b1-6)]Man(a1-6)[Gal(b1-4)GlcNAc(b1-2)Man(a1-3)]Man(b1-4)GlcNAc(b1-4)GlcNAc
Outline: as §1

[6] = biological target: Gal(b1-4)GlcNAc(b1-2)[Gal(b1-4)GlcNAc(b1-6)]Man(a1-6)[Gal(b1-4)GlcNAc(b1-2)Man(a1-3)]Man(b1-4)GlcNAc(b1-4)[Fuc(a1-6)]GlcNAc
Outline: as §1

[7] = biological target: Gal(b1-4)GlcNAc(b1-2)[Gal(b1-4)GlcNAc(b1-6)]Man(a1-6)[GlcNAc(b1-4)][Gal(b1-4)GlcNAc(b1-2)Man(a1-3)]Man(b1-4)GlcNAc(b1-4)GlcNAc
Outline: as §1

[8] = biological target: Gal(b1-4)GlcNAc(b1-3)Gal(b1-3)GlcNAc
Outline: as §1

[9] = biological target: Gal(b1-4)GlcNAc(b1-3)Gal(b1-4)Glc
Outline: as §1

[10] = biological target: Gal(b1-4)GlcNAc(b1-3)Gal(b1-4)GlcNAc
Outline: as §1

[11] = biological target: Gal(b1-4)GlcNAc(b1-3)Gal(b1-4)GlcNAc(b1-3)Gal(b1-4)GlcNAc
Outline: as §1

[12] = biological target: Gal(b1-4)GlcNAc(b1-3)Gal(b1-4)[Fuc(a1-3)GlcNAc(b1-6)]Gal(b1-4)Glc
Outline: as §1

[13] = biological target: Gal(b1-4)GlcNAc(b1-3)Gal(b1-4)[Fuc(a1-3)]GlcNAc(b1-3)Gal(b1-4)[Fuc(a1-3)]GlcNAc
Outline: as §1

[14] = biological target: Gal(b1-4)GlcNAc(b1-3)GalNAc
Outline: as §1

[15] = biological target: Gal(b1-4)GlcNAc(b1-3)[Gal(b1-4)GlcNAc(b1-6)]Gal(b1-4)GlcNAc
Outline: as §1

[16] = biological target: Gal(b1-4)GlcNAc(b1-3)[Gal(b1-4)GlcNAc(b1-6)]GalNAc
Outline: as §1

[17] = biological target: Gal(b1-4)GlcNAc(b1-3)[GlcNAc(b1-6)]Gal(b1-4)GlcNAc
Outline: as §1

[18] = biological target: Gal(b1-4)GlcNAc(b1-6)Gal(b1-4)GlcNAc
Outline: as §1

[19] = biological target: Gal(b1-4)GlcNAc(b1-6)GalNAc
Outline: as §1

[20] = biological target: Gal(b1-4)GlcNAc(b1-6)[Gal(b1-3)]GalNAc
Outline: as §1

Gal(b1-4)GlcNAc6P = biological target: Gal(b1-4)GlcNAc6P
Outline: as §1

Gal(b1-6)Gal = biological target: Gal(b1-6)Gal
Outline: as §1

Gal3S(b1-3)GalNAc = biological target: Gal3S(b1-3)GalNAc
Outline: as §1

Gal3S(b1-3)GlcNAc = biological target: Gal3S(b1-3)GlcNAc
Outline: as §1

[21] = biological target: Gal3S(b1-3)[Fuc(a1-4)]GlcNAc
Outline: as §1

Gal3S(b1-4)Glc = biological target: Gal3S(b1-4)Glc
Outline: as §1

Gal3S(b1-4)Glc6S = biological target: Gal3S(b1-4)Glc6S
Outline: as §1

Gal3S(b1-4)GlcNAc = biological target: Gal3S(b1-4)GlcNAc
Outline: as §1

Gal3S(b1-4)GlcNAc6S = biological target: Gal3S(b1-4)GlcNAc6S
Outline: as §1

[22] = biological target: Gal3S(b1-4)[Fuc(a1-3)]Glc
Outline: as §1

[23] = biological target: Gal3S(b1-4)[Fuc(a1-3)]Glc6S
Outline: as §1

Gal3S4S(b1-4)GlcNAc = biological target: Gal3S4S(b1-4)GlcNAc
Outline: as §1

Gal3S6S(b1-4)GlcNAc = biological target: Gal3S6S(b1-4)GlcNAc
Outline: as §1

Gal3S6S(b1-4)GlcNAc6S = biological target: Gal3S6S(b1-4)GlcNAc6S
Outline: as §1

Gal4S(b1-4)GlcNAc = biological target: Gal4S(b1-4)GlcNAc
Outline: as §1

Gal4S6S(b1-4)GlcNAc = biological target: Gal4S6S(b1-4)GlcNAc
Outline: as §1

Gal6P(b1-4)GlcNAc = biological target: Gal6P(b1-4)GlcNAc
Outline: as §1

Gal6S(b1-3)GlcNAc = biological target: Gal6S(b1-3)GlcNAc
Outline: as §1

Gal6S(b1-3)GlcNAc6S = biological target: Gal6S(b1-3)GlcNAc6S
Outline: as §1

Gal6S(b1-4)Glc = biological target: Gal6S(b1-4)Glc
Outline: as §1

Gal6S(b1-4)Glc6S = biological target: Gal6S(b1-4)Glc6S
Outline: as §1

Gal6S(b1-4)GlcNAc = biological target: Gal6S(b1-4)GlcNAc
Outline: as §1

Gal6S(b1-4)GlcNAc6S = biological target: Gal6S(b1-4)GlcNAc6S
Outline: as §1

GalNAc(a1-3)Gal = biological target: GalNAc(a1-3)Gal
Outline: as §1

GalNAc(a1-3)GalNAc = biological target: GalNAc(a1-3)GalNAc
Outline: as §1

B1: SpnanA (Streptococcus pneumoniae), P62575 (protein)
chain: MVIEKEDVETNASNGQRVDLSSELDKLKKLENATVHMEFKPDAKAPAFYNLFSVSSATKKDEYFTMAVYNNTATLEGRGSDGKQFYNNYNDAPLKVKPGQWNSVTFTVEKPTAELPKGRVRLYVNGVLSRTSLRSGNFIKDMPDVTHVQIGATKRANNTVWGSNLQIRNLTVYNRALTPEEVQKRS
[1]
  glycan array binding signal (z-score): -0.283
[2]
  glycan array binding signal (z-score): -0.277
[3]
  glycan array binding signal (z-score): -0.353
[4]
  glycan array binding signal (z-score): -0.34
[5]
  glycan array binding signal (z-score): -0.36
[6]
  glycan array binding signal (z-score): -0.292
[7]
  glycan array binding signal (z-score): -0.271
[8]
  glycan array binding signal (z-score): -0.281
[9]
  glycan array binding signal (z-score): -0.28
[10]
  glycan array binding signal (z-score): -0.211
[11]
  glycan array binding signal (z-score): -0.282
[12]
  glycan array binding signal (z-score): -0.274
[13]
  glycan array binding signal (z-score): -0.133
[14]
  glycan array binding signal (z-score): -0.161
[15]
  glycan array binding signal (z-score): -0.322
[16]
  glycan array binding signal (z-score): -0.281
[17]
  glycan array binding signal (z-score): -0.29
[18]
  glycan array binding signal (z-score): -0.245
[19]
  glycan array binding signal (z-score): -0.295
[20]
  glycan array binding signal (z-score): -0.25
Gal(b1-4)GlcNAc6P
  glycan array binding signal (z-score): -0.289
Gal(b1-6)Gal
  glycan array binding signal (z-score): -0.199
Gal3S(b1-3)GalNAc
  glycan array binding signal (z-score): -0.259
Gal3S(b1-3)GlcNAc
  glycan array binding signal (z-score): -0.27
[21]
  glycan array binding signal (z-score): -0.18
Gal3S(b1-4)Glc
  glycan array binding signal (z-score): -0.238
Gal3S(b1-4)Glc6S
  glycan array binding signal (z-score): -0.248
Gal3S(b1-4)GlcNAc
  glycan array binding signal (z-score): -0.171
Gal3S(b1-4)GlcNAc6S
  glycan array binding signal (z-score): -0.248
[22]
  glycan array binding signal (z-score): -0.145
[23]
  glycan array binding signal (z-score): -0.119
Gal3S4S(b1-4)GlcNAc
  glycan array binding signal (z-score): -0.194
Gal3S6S(b1-4)GlcNAc
  glycan array binding signal (z-score): -0.275
Gal3S6S(b1-4)GlcNAc6S
  glycan array binding signal (z-score): -0.297
Gal4S(b1-4)GlcNAc
  glycan array binding signal (z-score): -0.169
Gal4S6S(b1-4)GlcNAc
  glycan array binding signal (z-score): -0.069
Gal6P(b1-4)GlcNAc
  glycan array binding signal (z-score): -0.161
Gal6S(b1-3)GlcNAc
  glycan array binding signal (z-score): -0.24
Gal6S(b1-3)GlcNAc6S
  glycan array binding signal (z-score): -0.193
Gal6S(b1-4)Glc
  glycan array binding signal (z-score): -0.195
Gal6S(b1-4)Glc6S
  glycan array binding signal (z-score): -0.104
Gal6S(b1-4)GlcNAc
  glycan array binding signal (z-score): -0.198
Gal6S(b1-4)GlcNAc6S
  glycan array binding signal (z-score): -0.166
GalNAc(a1-3)Gal
  glycan array binding signal (z-score): -0.244
GalNAc(a1-3)GalNAc
  glycan array binding signal (z-score): -0.233
